Experimental data: the supplement of paper PMC12217912
This is one part of the list. The full chains were built here from the parent and the listed change. Values near 0.05 are background.

B1: TEV protease; numbered along this chain (parent)
chain: MGESLFKGPRDYNPISSSICHLTNESDGHTTSLYGIGFGPFIITNKHLFRRNNGTLVVQSLHGVFKVKDTTTLQQHLVDGRDMIIIRMPKDFPPFPQKLKFREPQREERICLVTTNFQTKSMSSMVSDTSCTFPSGDGIFWKHWIQTKDGQCGSPLVSTRDGFIVGIHSASNFTNTNNYFTSVPKNFMELLTNQEAQQWVSGWRLNADSVLWGGHKVFMVKPEEPFQPVKEATQL

Variants of: B1
Test: raw area under fraction-flipped curve 0-4 h after induction (AUC4h, not background-subtracted), DNA-recorder readout of cleavage of the substrate (dimensionless); higher = more cleavage of the substrate by the protease variant
Details: temperature: 34 °C; time window: 0-4 h after rhamnose induction
Protocol: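 In vivo DNA recorder in E. coli TOP10(DE3) ΔrhaA at 34 °C. Each TEVp single-site mutant (parent TEVp 0) is paired with a single-site variant of the 7-mer TEVs (canonical ENLYFQ|S). The substrate sits between flexible linkers in a Bxb1-sfGFP-TEVs-SsrA fusion, so cleavage stabilises Bxb1 and speeds flipping of a recombination array, read by NGS. The value is the raw area under the fraction-flipped curve over 0-4 h after rhamnose induction (AUC4h), with ≥20 reads per time point. It is not background-subtracted; inactive controls average about 0.047.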
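Also: Bxb1 expression induced with 0.2% (w/v) L-rhamnose at OD600 near 0.5, cultures sampled hourly, flipped fraction per protease–substrate barcode pair counted by paired-end Illumina sequencing.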

| Variant | area with substrate EALYFQS | area with substrate ECLYFQS | area with substrate EDLYFQS | area with substrate EELYFQS | area with substrate EHLYFQS | area with substrate EILYFQS | area with substrate EKLYFQS | area with substrate ELLYFQS | area with substrate EMLYFQS | area with substrate EPLYFQS | area with substrate EQLYFQS | area with substrate ERLYFQS | area with substrate ESLYFQS | area with substrate EVLYFQS | area with substrate EWLYFQS | area with substrate ETLYFQS | area with substrate EGLYFQS | area with substrate EYLYFQS | area with substrate EFLYFQS |
| --- | --- | --- | --- | --- | --- | --- | --- | --- | --- | --- | --- | --- | --- | --- | --- | --- | --- | --- | --- |
| MGESLFKGPRDYNPISSSICHLTNESDGHTTSLYGIGFGPFIITNKHLFRRNNGTLVVQSLHGVFKVKDTTTLQQHLVDGRDMIIIRMPKDFPPWPQKLKFREPQREERICLVTTNFQTKSMSSMVSDTSCTFPSGDGIFWKHWIQTKDGQCGSPLVSTRDGFIVGIHSASNFTNTNNYFTSVPKNFMELLTNQEAQQWVSGWRLNADSVLWGGHKVFMVKPEEPFQPVKEATQL [F95W] | 0.144 | 0.0851 | 0.139 | 0.116 | 0.0889 | 0.0809 | 0.0641 | 0.0785 | 0.109 | 0.108 | 0.154 | 0.0769 | 0.0862 | 0.1 | 0.106 | – | – | – | – |
| MGESLFKGPRDYNPISSSICHLTNESDGHTTSLYGIGFGPFIITNKHLFRRNNGTLVVQSLHGVFKVKDTTTLQQHLVDGRDMIIIRMPKDFPPFPQKLSFREPQREERICLVTTNFQTKSMSSMVSDTSCTFPSGDGIFWKHWIQTKDGQCGSPLVSTRDGFIVGIHSASNFTNTNNYFTSVPKNFMELLTNQEAQQWVSGWRLNADSVLWGGHKVFMVKPEEPFQPVKEATQL [K100S] | 0.11 | 0.117 | 0.152 | – | 0.12 | 0.0745 | 0.113 | – | 0.108 | 0.115 | 0.129 | – | 0.0973 | 0.0932 | – | 0.106 | – | – | – |
| MGESLFKGPRDYNPISSSICHLTNESDGHTTSLYGIGFGPFIITNKHLFRRNNGTLVVQSLHGVFKVKDTTTLQQHLVDGEDMIIIRMPKDFPPFPQKLKFREPQREERICLVTTNFQTKSMSSMVSDTSCTFPSGDGIFWKHWIQTKDGQCGSPLVSTRDGFIVGIHSASNFTNTNNYFTSVPKNFMELLTNQEAQQWVSGWRLNADSVLWGGHKVFMVKPEEPFQPVKEATQL [R81E] | 0.0729 | – | 0.0804 | 0.0735 | – | 0.0581 | 0.0745 | 0.0602 | 0.0741 | 0.0794 | 0.0404 | 0.0819 | 0.0655 | 0.0559 | 0.0653 | – | 0.0693 | – | – |
| MGESLFKGPRDYNPISSSICHLTNESDGHTTSLYGIGFGPFIITNKHLFRRNNGTLVVQSLHGVFKVKDTTTLQQHLVDGDDMIIIRMPKDFPPFPQKLKFREPQREERICLVTTNFQTKSMSSMVSDTSCTFPSGDGIFWKHWIQTKDGQCGSPLVSTRDGFIVGIHSASNFTNTNNYFTSVPKNFMELLTNQEAQQWVSGWRLNADSVLWGGHKVFMVKPEEPFQPVKEATQL [R81D] | 0.0627 | 0.0673 | – | 0.0546 | – | 0.0497 | 0.0517 | – | 0.0693 | – | 0.0766 | 0.0615 | 0.065 | 0.06 | 0.0669 | – | 0.0598 | 0.068 | – |
| MGESLFKGPRDYNPISSSICHLTNESDGHTTSLYGIGFGPFIITNKHLFRRNNGTLVVQSLHGVFKVKDTTTLQQHLVDGRDIIIIRMPKDFPPFPQKLKFREPQREERICLVTTNFQTKSMSSMVSDTSCTFPSGDGIFWKHWIQTKDGQCGSPLVSTRDGFIVGIHSASNFTNTNNYFTSVPKNFMELLTNQEAQQWVSGWRLNADSVLWGGHKVFMVKPEEPFQPVKEATQL [M83I] | 0.073 | – | 0.1 | – | – | – | – | – | 0.107 | – | – | 0.081 | 0.0766 | – | 0.0665 | – | – | – | 0.0855 |
